{
  "source": "ChEMBL document CHEMBL4888484",
  "about": "“Replenishing the malaria drug discovery pipeline: Screening and hit evaluation of the MMV Hit Generation Library 1 (HGL1) against asexual blood stage Plasmodium falciparum ,using a nano luciferase reporter read-out” (2022)",
  "note": "Hit rate of the full screen: of about 150,000 compounds, about 540 (0.36%) showed an effect of 50% or more. Some of the results follow.",
  "data": [
    {"test_system": "Plasmodium falciparum", "assay": "Primary screen in NF54 nanoGlo assay, in single point, at 2uM, 72h; a lower Z score goes with more inhibition", "type": "functional, Erythrocyte", "conditions": "timepoint 72 hour", "units": {"% Inhibition": "%"}, "values": [
      {"smiles": "CCn1nc(C2CC2)cc1C(=O)Nc1ccsc1C(N)=O", "% Inhibition": -5, "Z score": 0.89},
      {"smiles": "O[C@H]1CN(c2cnc3ccccc3n2)C[C@@H]1N1CCCC1", "% Inhibition": -8, "Z score": 1.14},
      {"smiles": "COc1cc(Nc2ccc(N)cc2)nc(C)n1", "% Inhibition": 0, "Z score": 0.06},
      {"smiles": "Oc1[nH]nc2nc(C(F)(F)F)cc(C(F)(F)F)c12", "% Inhibition": -14, "Z score": 2.12},
      {"smiles": "CC(C)(C)C(=O)N1CC(c2nc(-c3cccnc3)no2)C1", "% Inhibition": 4, "Z score": -0.69},
      {"smiles": "CN(C(=O)[C@@H]1COCCO1)c1cc(Cl)cc(Cl)c1", "% Inhibition": -2, "Z score": 0.39},
      {"smiles": "CC(C)N1CCN(CCn2cnc(-c3ccccc3)c2-c2ccsc2)CC1", "% Inhibition": -2, "Z score": 0.21},
      {"smiles": "CC1CCC(NC(=O)NCCc2ccnn2C)C(C)C1", "note": "(stereo not given)", "% Inhibition": -12, "Z score": 1.73},
      {"smiles": "O=C(N[C@@H]1CCCC[C@H]1NC(=O)C1CCN(S(=O)(=O)c2ccc(Br)cc2)CC1)c1ccccc1", "% Inhibition": -14, "Z score": 1.97},
      {"smiles": "O=C(c1cnc(-c2cccnc2)nc1)N1CCO[C@@H](Cc2cccc(F)c2)C1", "% Inhibition": -29, "Z score": 3.12},
      {"smiles": "Cc1ccc(CN(C)C(=O)c2cccc(S(=O)(=O)N3CCCCC3)c2)o1", "% Inhibition": -1, "Z score": 0.13},
      {"smiles": "CC(C)(CNC(=O)NCC1CC2CCC1C2)NS(C)(=O)=O", "note": "(stereo not given)", "% Inhibition": 7, "Z score": -0.97},
      {"smiles": "CCc1nnc(-c2nc3c([nH]2)C[C@H](c2cccc(OC)c2)CNC3=O)s1", "% Inhibition": -1, "Z score": 0.12},
      {"smiles": "COc1ccc(C(=O)N[C@H]2CC(=O)N(c3ccc4c(c3)OCCO4)C2)cc1", "% Inhibition": -8, "Z score": 1.57},
      {"smiles": "O=S(=O)(c1c(F)cccc1Br)N1CC2CCC1C2", "note": "(stereo not given)", "% Inhibition": 29, "Z score": -3.32},
      {"smiles": "COc1ccc(S(=O)(=O)N2CCC3(CC2)C[C@@H](C(=O)NC2CCCC2)N(C)C3=O)cc1", "% Inhibition": -4, "Z score": 0.45},
      {"smiles": "COc1cccc(CN(C)c2nc(=O)c3c(ncn3CC3CC3)c(=O)[nH]2)c1", "% Inhibition": -7, "Z score": 1.24},
      {"smiles": "Cc1ccc(CC(=O)N[C@@H]2CS(=O)(=O)C[C@H]2O)c(Cl)c1", "% Inhibition": -8, "Z score": 1.12},
      {"smiles": "O=C(c1cc[nH]n1)N1CCOc2c(O)cc(-c3cccnc3)cc2C1", "% Inhibition": -16, "Z score": 2.76},
      {"smiles": "CCc1ccc(-c2nn(C)c(=O)c3c2CCCC3)cc1S(=O)(=O)N1CCCC1", "% Inhibition": -7, "Z score": 1.01},
      {"smiles": "O=C(NC1CCC2(CCOCC2)CC1)c1cc(C2CC2)on1", "% Inhibition": 3, "Z score": -0.53},
      {"smiles": "CC[C@H]1CCCCN1CCCNC(=O)c1cc2occc2c(Nc2ccc(F)cc2)n1", "% Inhibition": -7, "Z score": 0.72},
      {"smiles": "O=C(NCc1ccccc1)N1C[C@H]2CC[C@@H](C1)N(Cc1ccccn1)C2", "% Inhibition": -1, "Z score": 0.31},
      {"smiles": "O=C(Nc1ccccc1-c1nc2ccccc2s1)N1CCC[C@@H]1CO", "% Inhibition": -10, "Z score": 1.83},
      {"smiles": "CCN1CCN(C(=O)c2cncc(O)n2)CC1(C)C", "% Inhibition": -6, "Z score": 0.77},
      {"smiles": "CCCc1cc(C(=O)N[C@@H](C)c2nnc(C(C)C)o2)[nH]n1", "% Inhibition": -3, "Z score": 0.54},
      {"smiles": "CNc1cc([C@H]2C[C@H](Nc3nc(N)nc(C)c3Cl)C2)nc(COC)n1", "% Inhibition": -3, "Z score": 0.34},
      {"smiles": "Cc1cc(C)c(-c2cc(C(=O)N(CCC(=O)N3CCCCC3)C3CC3)no2)c(C)c1", "% Inhibition": -6, "Z score": 1.23},
      {"smiles": "FC(F)(F)c1ccccc1CN1CCC(O[C@H]2CCOC2)CC1", "% Inhibition": 0, "Z score": -0.02},
      {"smiles": "Clc1ccc(CN2CCN(c3ncnc4sccc34)CC2)cc1", "% Inhibition": -7, "Z score": 1.31},
      {"smiles": "O=C(c1cc(=O)[nH]c2ccccc12)N1CCN(c2ccc(F)cc2)CC1", "% Inhibition": -15, "Z score": 2.11},
      {"smiles": "CCOCCC(=O)NC1(CO)CCCCCC1", "% Inhibition": 4, "Z score": -0.59},
      {"smiles": "CC1CN(CC2CCN(C(=O)Cc3cccs3)CC2)CC(C)O1", "note": "(stereo not given)", "% Inhibition": 1, "Z score": -0.16},
      {"smiles": "CC(C)Oc1ccc(C(=O)N2C3CCC2CC(n2ccnn2)C3)cc1", "note": "(stereo not given)", "% Inhibition": -3, "Z score": 0.47},
      {"smiles": "Cc1nn(C)c(C)c1S(=O)(=O)N[C@@]1(C)CC(C)(C)OC1=O", "% Inhibition": 32, "Z score": -3.75},
      {"smiles": "O=C(c1ccn2ccnc2c1)N(CCc1cccc(F)c1)C1CC1", "% Inhibition": -7, "Z score": 0.99},
      {"smiles": "O=C(Nc1nn2cc(-c3ccccc3)nc2s1)c1cccc(F)c1", "% Inhibition": -15, "Z score": 2.88},
      {"smiles": "CCCc1cc(CNC(=O)[C@H](C)S(=O)(=O)CC)on1", "% Inhibition": -2, "Z score": 0.24},
      {"smiles": "CC(C)c1cnc(N2CC[C@](C)(O)C2)s1", "% Inhibition": -4, "Z score": 0.44},
      {"smiles": "FC(F)(F)c1ccc2c(c1)NC[C@@H]1CCCCN21", "% Inhibition": -2, "Z score": 0.23},
      {"smiles": "CCCn1ncc(C(=O)NC[C@H](C)C(=O)O)c1C", "% Inhibition": -11, "Z score": 0.98},
      {"smiles": "COc1cc2c(cc1OC)CN(C(=O)Cn1ccnc1C(C)C)CC2", "% Inhibition": -2, "Z score": 0.25},
      {"smiles": "Cc1nnc(NC(=O)c2c(C)noc2-c2ccc(Cl)cc2)s1", "% Inhibition": -2, "Z score": 0.25},
      {"smiles": "Cc1nc([C@H](C)Nc2ncnc3[nH]cnc23)cs1", "% Inhibition": -10, "Z score": 1.43},
      {"smiles": "C[C@]1(C(N)=O)CCN(C(=O)c2ccc3c(c2)CCCC3=O)C1", "% Inhibition": 18, "Z score": -2.25},
      {"smiles": "C=C(C)C[C@H](C)C(=O)NCC12COCCN1CCOC2", "% Inhibition": -10, "Z score": 1.15},
      {"smiles": "C=CCN(CC=C)C(=O)Cc1ccccc1C", "% Inhibition": 2, "Z score": -0.42},
      {"smiles": "CCCCOc1ccc(NC(=O)N2CCCN(Cc3cnn(CCC)c3)CC2)c(C)c1", "% Inhibition": -6, "Z score": 0.58},
      {"smiles": "Cc1c(C(=O)N2CCN(c3ccccc3F)CC2)cccc1-n1nnc2cccnc21", "% Inhibition": 1, "Z score": -0.2},
      {"smiles": "CC1CCC(O)(CN2CCC[C@H]2C(=O)N(C)C)CC1", "note": "(stereo not given in full)", "% Inhibition": -1, "Z score": 0.19},
      {"smiles": "CCC1CN(C(=O)C(C)NC(C)=O)CC1O", "note": "(stereo not given)", "% Inhibition": -1, "Z score": 0.15},
      {"smiles": "CC[C@@H](C(=O)Nc1c(-c2ccc3c(c2)OCO3)n[nH]c1C1CC1)c1ccccc1", "% Inhibition": -3, "Z score": 0.57},
      {"smiles": "Cc1cc(Br)cc(Cl)c1NC(=O)C(C)C", "% Inhibition": 1, "Z score": -0.19},
      {"smiles": "Cc1nnc(NC(=O)NC2CCN(Cc3ccccc3)CC2)s1", "% Inhibition": -6, "Z score": 1.01},
      {"smiles": "O=C(O)c1ccccc1-n1nc(C2CCCC2)nc1CN1CCCCC1=O", "% Inhibition": -2, "Z score": 0.24}
    ]}
  ]
}
